Results as given in PubChem BioAssay AID485294 (National Center for Advancing Translational Sciences (NCATS), 2010).
Among all 370,000 compounds or so, about 150 (0.041%) were called active. The shares of active, inactive and inconclusive entries below differ from those in the screen. Calls follow the shape of the dose curve; as a rule, active = well fitted inhibition curve with a large enough effect; inconclusive = small, poorly fitted or top-dose-only effect; inactive = flat fitted curve, though single readings scatter. Potencies of inconclusive entries are left out as doubtful fits.

The compounds below were run against Beta-lactamase (Escherichia coli (strain K12)) (UniProt P00811) (assay: qHTS Inhibitors of AmpC Beta-Lactamase (assay with detergent)). Conditions: AmpC hydrolysis of nitrocefin, absorbance 480 nm, 0.01% Triton; series mostly up to 114 µM.
Method in brief: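 AmpC (5.3 nM in the dispensed reagent) in 20 mM phosphate pH 7.0 with 0.01% (detergent screen) or 0.0001% Triton X-100 was preincubated with compounds for 15 min at room temperature. Nitrocefin was then added from an 800 uM solution, and hydrolysis was followed at 480 nm.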
Also: nearly all actives have a fitted effect of over 25% in size.
Potency is read from the fitted curve at half-maximal effect; tags tell the direction and shape of the fitted curve.

Chain of UniProt P00811 (P00811 whole entry, looked up): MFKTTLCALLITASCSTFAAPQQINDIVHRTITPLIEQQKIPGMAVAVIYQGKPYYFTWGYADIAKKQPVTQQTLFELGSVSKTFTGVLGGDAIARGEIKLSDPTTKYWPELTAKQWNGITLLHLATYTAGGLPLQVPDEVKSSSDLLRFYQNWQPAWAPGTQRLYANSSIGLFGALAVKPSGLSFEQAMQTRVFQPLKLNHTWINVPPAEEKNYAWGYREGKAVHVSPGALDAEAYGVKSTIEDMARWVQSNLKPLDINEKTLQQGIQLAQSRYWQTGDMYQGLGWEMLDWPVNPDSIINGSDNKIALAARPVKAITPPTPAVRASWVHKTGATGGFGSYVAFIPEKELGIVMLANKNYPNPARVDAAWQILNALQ

| SMILES | Potency |
| --- | --- |
| O=C(CN(C1CC1)S(=O)(=O)c1ccc(S(=O)(=O)NC2CCCCC2)cc1)Nc1ccccc1 | inconclusive [inhibitor, full curve, poor fit] |
| CCOC(=O)c1c(C)[nH]c(C(=O)NCCc2ccc(OC)c(OC)c2)c1C | inconclusive [inhibitor, full curve, poor fit] |
| Cc1ccc(SC2=C(Sc3ccc(C)cc3)C(=O)c3ccccc3C2=O)cc1 | inactive |
| CCOc1ccc(S(=O)(=O)N2CCN(c3ccccc3F)CC2)c2cccnc12 | inconclusive [inhibitor, full curve, poor fit] |
| O=C(NC1(C(F)(F)F)NC(=O)N(C2CCCCC2)C1=O)c1cccs1 (stereo not drawn) | inconclusive [inhibitor, full curve] |
| CN1/C(=C\C(=O)Nc2ccc(Br)cc2)C(C)(C)c2ccccc21 | inconclusive [inhibitor, full curve] |
| CC(C)Nc1nc(-c2ccncc2)nc(-c2ccc(Cl)cc2)c1C#N | inactive |
| Cc1ccc(-c2nnn(CC(=O)N3c4ccccc4CCc4ccccc43)n2)cc1 | inconclusive [inhibitor, full curve, poor fit] |
| O=C(O)CC1CCCC(c2ccccc2)C1=O (stereo not drawn) | inactive |
| Cc1cccc(OCC(O)CN2CCN(C3CCCCC3)CC2)c1 (stereo not drawn) | inconclusive [inhibitor, full curve, poor fit] |
| COc1cccc(/C=C/C(=O)OCC(=O)N2CCCc3ccccc32)c1 | inconclusive [inhibitor, full curve, poor fit] |
| c1ccc2cc(OCCCn3ccnc3)ccc2c1 | inconclusive [inhibitor, full curve, poor fit] |
| CCCCN(C(=O)COC(=O)CSc1ccc([N+](=O)[O-])cc1)c1c(N)n(CCC)c(=O)[nH]c1=O | inconclusive [inhibitor, full curve, poor fit] |
| COC(=O)c1nc(NC2=NCCCCC2)n[nH]1 | inconclusive [inhibitor, full curve, poor fit] |
| Cn1c(O)c(N=Nc2ccccc2[N+](=O)[O-])c2ccccc21 | inconclusive [inhibitor, full curve, poor fit] |
| COC(=O)c1ccc(NC(=O)CSc2nnc(C)n2-c2ccccc2)cc1 | inconclusive [inhibitor, full curve, poor fit] |
| O=C(O)COc1ccc2c(-c3ccccc3)cc(=O)oc2c1 | inconclusive [inhibitor, full curve, poor fit] |
| CCCCC(=O)NC(c1ccc(N(C)C)cc1)c1ccc2cccnc2c1O (stereo not drawn) | inactive |
| CC(C)C(OC(=O)c1nsc(Cl)c1Cl)C(=O)NC1CCCCC1 (stereo not drawn) | inconclusive [inhibitor, full curve, poor fit] |
| COc1ccc(CNC(=O)c2ccc(-c3nc(CS(=O)c4ccc(C)cc4)c(C)o3)cc2)cc1 (stereo not drawn) | inactive |
| COc1ccc(NC2c3ccccc3C(=O)N2c2cccnc2)cc1 (stereo not drawn) | inactive |
| CCOC(=O)N1CCN(C(=O)C(c2ccccc2)c2ccccc2)CC1 | inconclusive [inhibitor, full curve, poor fit] |
| CC(C)N(Cc1nc2ccccc2[nH]1)C(C)C | inconclusive [inhibitor, partial curve] |

| SMILES | Potency |
| --- | --- |
| CN(C)c1ccc(/C=N/n2ncc3ccccc32)cc1 | inconclusive [inhibitor, full curve, poor fit] |
| COc1ccc(C2CC(c3ccccc3Cl)Nc3ncnn32)cc1OC (stereo not drawn) | inconclusive [inhibitor, full curve, poor fit] |
| Cc1ccc(CN2CC(C(=O)N3CCN(c4ccccc4Cl)CC3)CC2=O)cc1 (stereo not drawn) | inactive |
| COc1ccc(C(=O)N=c2sc3c(C)ccc(OC)c3n2C)cc1OC | inactive |
| COc1ccc2[nH]c(=O)c(CN(C(=O)c3ccncc3)C(C)(C)C)cc2c1 | inconclusive [inhibitor, partial curve, poor fit] |
| CC(=O)Nc1ccc(NC(=O)C2Cc3ccccc3N2C(=O)c2ccccc2)cc1 (stereo not drawn) | inactive |
| COCCCNC(=O)C(Cc1ccccc1)NS(=O)(=O)c1ccc2c(c1)c(=O)n(C)c(=O)n2C (stereo not drawn) | inconclusive [inhibitor, single point] |
| CN1CCN(S(=O)(=O)c2ccc(Sc3nnc(-c4cccs4)n3-c3ccccc3)nc2)CC1 | inactive |
| Cc1cccc(CNc2ncnc3ccc(-c4cccc(C)c4)cc23)c1 | inconclusive [inhibitor, full curve, poor fit] |
| COc1ccccc1NC(=S)NNC(=O)c1ccncc1 | inconclusive [inhibitor, full curve] |
| CCCCn1c(=O)[nH]c(=O)c2c1nc(-c1ccc(C#N)cc1)n2C1CCCC1 | inconclusive [inhibitor, partial curve, poor fit] |
| CCOC(=O)C(=O)Nc1nnc(Cc2ccc(OC)c(OC)c2)s1 | inconclusive [inhibitor, partial curve, poor fit] |
| CC(=O)NC(=S)Nc1ccc(NC(=O)COc2ccc(Cl)cc2Cl)cc1 | inactive |
| O=C(c1ccc([N+](=O)[O-])cc1)N1c2ncnn2C2(CCCCC2)[C@@H]2CCCC[C@@H]21 | inactive |
| O=C(O)Cn1nc(C(F)(F)F)c2c1CCCCC2 | inconclusive [inhibitor, full curve, poor fit] |
| COc1ccc(Cl)cc1C(=O)NCc1nc(-c2cccc(C)c2)no1 | inactive |
| O=C(c1cnn2c(C(F)(F)F)cc(-c3cccs3)nc12)N1CCN(Cc2ccccc2)CC1 | inconclusive [inhibitor, partial curve, poor fit] |
| O=C(O)COc1ccc(NC(=O)C(c2ccccc2)c2ccccc2)cc1 | inconclusive [inhibitor, full curve, poor fit] |
| CC(C)COC(=O)c1ccc(NC(=O)C2C3CCC(C3)C2C(=O)O)cc1 (stereo not drawn) | inconclusive [inhibitor, partial curve, poor fit] |
| CSC1=NCCN1C(=O)c1c(F)cccc1F | inconclusive [inhibitor, full curve, poor fit] |
| Cc1cc(C)c(NC(=O)Cc2ccc(-n3c(C)nc4cccnc43)cc2)c(C)c1 | inconclusive [inhibitor, single point] |
| CCc1cc(Cn2nc(-c3ccccc3)cc2C(=O)NCC2CC2)on1 | inconclusive [inhibitor, single point] |
| COc1ccc(CCNc2cc(C)nc3c(-c4ccccc4)cnn23)cc1OC | inactive |

| SMILES | Potency |
| --- | --- |
| CC1=C(C(=O)Nc2cccc(C(F)(F)F)c2)C2(CCN(C(C)C)CC2)OC1=O | inactive |
| CC(/C=C/C=C/c1ccccc1)=N/NC(=O)c1ccc2c(c1)OCCO2 | inactive |
| CCOC(=O)c1[nH]c2ccc(OC)cc2c1NC(=O)C(C)N1CCC2(CC1)OCCO2 (stereo not drawn) | inconclusive [inhibitor, full curve, poor fit] |
| CCN(CC)CCNC(=O)c1ccc2c(=O)n3nc(Nc4ccccc4)sc3nc2c1 | inactive |
| COc1cccc(-n2c(C)c(C(C)=O)c(C(C)=O)c2C)c1 | inconclusive [inhibitor, full curve, poor fit] |
| Cc1ccc(-c2nc3c(c(SCC(=O)Nc4cccc(C(=O)O)c4)n2)Cc2cccc(C)c2O3)cc1 | inactive |
| Cc1cccc(OCCSc2ncnc3nc[nH]c23)c1 | inactive |
| Cc1ccccc1Cn1cnc2ccccc2c1=O | inconclusive [inhibitor, partial curve] |
| N#C/C(=C(\O)Cc1ccccc1)c1nc2ccccc2[nH]1 | inactive |
| Cc1ccc(S(=O)(=O)N2CCCCC2C(=O)N2CCN(Cc3ccccc3)CC2)cc1 (stereo not drawn) | inconclusive [inhibitor, partial curve] |
| CCc1ccc(OCC(=O)Nc2ccncc2)cc1 | inconclusive [inhibitor, partial curve, poor fit] |
| Cc1ccc(CNC(=O)C2CCCN(Cc3nc(-c4cccc(C)c4)oc3C)C2)cc1 (stereo not drawn) | inconclusive [inhibitor, partial curve, poor fit] |
| Cc1ccc(S(=O)(=O)Nc2ccsc2C#N)cc1 | inactive |
| Cc1cc2c(cc1S(=O)(=O)Nc1cccc(Cl)c1C)OCCN2C | inactive |
| COc1ccc(NC(=O)c2ccc(NC(=O)COC(=O)CC(NC(=O)c3ccccc3Cl)c3ccccc3)cc2)cc1 (stereo not drawn) | inconclusive [inhibitor, partial curve, poor fit] |
| O=C(Nc1cccc(S(=O)(=O)NC2=NCCC2)c1)c1ccccc1OC(F)F | inconclusive [inhibitor, full curve, poor fit] |
| O=C1CCc2cc(S(=O)(=O)N3CCN(c4ccccc4)CC3)cc3c2N1CCC3 | inconclusive [inhibitor, full curve, poor fit] |
| Nc1nc(-c2ccc3c(c2)CCCC3)cs1 | inactive |
| OCC1(CCOc2ccccc2)CCN(Cc2ccc(OC(F)F)cc2)CC1 | inactive |
| O=C(O)Cc1ccc(NC(=O)c2ccc(NC(=O)c3ccco3)cc2)cc1 | inconclusive [inhibitor, full curve, poor fit] |
| Cc1csc2c(=O)n3c(nc12)CCCCC3 | inconclusive [inhibitor, full curve, poor fit] |
| CSCCC(NC(=O)c1ccco1)C(=O)OC(C)C(=O)NC(=O)NC1CCCCC1 (stereo not drawn) | inconclusive [inhibitor, partial curve] |
